The results in this text go back to the supplement of paper PMC11417369.

± gives the standard deviation of the averaged measurements. The list shows a part of the results.

The test system of this test is PfAP2-LT AP2 domain (GST-tagged). The test can be described thus: gcPBM binding intensity (ln(normalized median fluorescence intensity)); higher = stronger DNA binding. An outline of the steps:
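GST-tagged P. falciparum DNA-binding domains produced in E. coli were incubated for 1 h on an Agilent 4 × 180k array of primer-extended double-stranded 36-bp intergenic genomic probes with negative controls. Binding intensity is the highest Masliner-normalised natural-log median intensity across replicate spots of either probe orientation, with bound protein detected by Alexa488 anti-GST antibody at 488 nm.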
As for “AAATAATTCATATGTTGTACAGTAATTAAATTTTCT [XGTACX_site6343]”, the “gcPBM binding intensity (ln)” value came to 8.52 ± 0.4.

Regarding “ATAATTAATCCAAAATGTACTTACATTTTATATGAA [XGTACX_site8888]”, the “gcPBM binding intensity (ln)” value came out at 8.4 ± 0.38.

For the sequence “ATAAGGATCAGACACAAACACACATATATATATATA [CACACA_site558]”, the “gcPBM binding intensity (ln)” value was 10.1 ± 0.13.

“TTTTTTTTTCTTTGCACACAGATAACTTGAAATTTG [CACACA_site2185]”: the “gcPBM binding intensity (ln)” value came out at 8.97 ± 0.46.

With “TTTTATAATTTATCTAAAAAAAAATAAAATAAAATG [TGCATGCA_negctrl_site429]”, the “gcPBM binding intensity (ln)” value was 7.95 ± 0.46.

Consider “ATAAAATAAAATAAAAGTACATAAATATATATATAT [XGTACX_site6110]”, for which the “gcPBM binding intensity (ln)” value was found to be 8.99 ± 0.43.

Consider “ACATATATATATATTACACACACACTAATAAAATAA [CACACA_site7920]”, for which the “gcPBM binding intensity (ln)” value was 9.76 ± 0.14.

Take “TTTCAAGAATTATATAAACACACATACATACACCCA [CACACA_site8592]”: the “gcPBM binding intensity (ln)” value came to 9.295 ± 0.092.

“AATAATATATATTACTGTACTAATATAAGGGACATC [XGTACX_site3744]”: the “gcPBM binding intensity (ln)” value was 9.03 ± 0.43.

As for “TTATTTTCTACAAATTGTACATATTTTTTACTACTC [XGTACX_site1394]”, the “gcPBM binding intensity (ln)” value was found to be 9.05 ± 0.42.

On to “TTGTCAAAAATTACACACATAAATGAATAAATAAAT [XGTACX_negctrl_site541]”, for which the “gcPBM binding intensity (ln)” value was 9.05 ± 0.4.

As to “ATTTATGAAAAAAATACATGCATGTCCATATAAATT [TGCATGCA_site505]”, the “gcPBM binding intensity (ln)” value was 8.83 ± 0.55.

As for “TCTTTCTATTAAACATGTACTTGTCTAAAGACATAA [XGTACX_site8564]”, the “gcPBM binding intensity (ln)” value worked out at 8.44 ± 0.45.

On to “CGAATAAATATATGTAGTACATGTTGTAGATAATTT [XGTACX_site1218]”, for which the “gcPBM binding intensity (ln)” value was found to be 8.99 ± 0.47.

As to “TATATATATTTAAATTGTACATATATTATTCATATG [XGTACX_site911]”, the “gcPBM binding intensity (ln)” value worked out at 8.73 ± 0.45.

In the case of “TTGGTTTCTTGTTTTTGTACCCATAATTTGTAATAT [XGTACX_site1248]”, the “gcPBM binding intensity (ln)” value was 8.97 ± 0.44.

“AAAAAAAAAAAAAAAAGTACAAATTTAAAAATGTGT [XGTACX_site112]”: the “gcPBM binding intensity (ln)” value was found to be 8.62 ± 0.5.

Turning to “AATAATAAAATAAAAGTGCATTAATTATAATTCTTT [GTGCAC_site9491]”, the “gcPBM binding intensity (ln)” value was found to be 8.52 ± 0.51.

Take “AATTATAATAATAATAGTACATAAGTATATAAATAA [XGTACX_site2400]”: the “gcPBM binding intensity (ln)” value was determined as 8.88 ± 0.46.

With “TTAAATATTTATATTTGTACACAATCAATCATACAC [XGTACX_site5793]”, the “gcPBM binding intensity (ln)” value came out at 8.68 ± 0.48.

Take “GAGGAAAAAAAAAAAAGTACATTATATAAGAAAATT [XGTACX_site2610]”: the “gcPBM binding intensity (ln)” value came to 8.59 ± 0.51.

For “ATATATATATTTTATTGTACAAAAAAAAAAAAAAAA [XGTACX_site6803]”, the “gcPBM binding intensity (ln)” value amounted to 8.47 ± 0.4.

Regarding “TTGTTATGCATTGGTTGTACATAAGTATAAGTAATT [XGTACX_site5401]”, the “gcPBM binding intensity (ln)” value amounted to 8.75 ± 0.31.

Consider TTTGTTTGTAAAATGTTGCACTTTCTTTTGCTGATA, for which the “gcPBM binding intensity (ln)” value came out at 8.87 ± 0.38.

Regarding “ATAGGATTCTCAAAGTGTACTTGTCTACTGTAGTTT [XGTACX_site4202]”, the “gcPBM binding intensity (ln)” value was found to be 8.87 ± 0.39.

For the sequence “CCATTATACACAATATGTACATATATATAATCATTT [XGTACX_site7942]”, the “gcPBM binding intensity (ln)” value was 8.85 ± 0.38.

For the sequence “AAAAAAAAAATATGTACACACATATAAAATACATAA [CACACA_site6869]”, the “gcPBM binding intensity (ln)” value was found to be 9.13 ± 0.46.

Regarding “ATATATATATTATATGCACACTAATAAGACTATTTA [CACACA_site5880]”, the “gcPBM binding intensity (ln)” value is 8.79 ± 0.31.

As for “CATAAATACAGTAACACACACAAAAAAATATGAATA [CACACA_site6066]”, the “gcPBM binding intensity (ln)” value came out at 9.68 ± 0.54.

As to “TGTTTTGTTATTTTTATTTATATAAATAAAGCTATA [GTGCAC_negctrl_site88]”, the “gcPBM binding intensity (ln)” value is 8.57 ± 0.42.

For the sequence “ATGAACATCCAATATACACACATATATATTTATATT [CACACA_site829]”, the “gcPBM binding intensity (ln)” value came to 9.09 ± 0.36.

Turning to “TAATGTTTCAAAATTTAATATACTACAAATATTATA [TGCATGCA_negctrl_site336]”, the “gcPBM binding intensity (ln)” value is 8.18 ± 0.45.

On to “CAAAAAAAAAAAAAAACACACATTAAATTATAAAGA [CACACA_site2613]”, for which the “gcPBM binding intensity (ln)” value came to 8.73 ± 0.64.

Take “TTACAAAAAAAAAGGCGCGGATGGGGGCAATAGCAA [CACACA_negctrl_site238]”: the “gcPBM binding intensity (ln)” value turned out to be 9.39 ± 0.45.

As to “TTTATATAGAAACACACACACAAAAAAAAAAAAAAA [CACACA_site2646]”, the “gcPBM binding intensity (ln)” value worked out at 9.29 ± 0.43.

Regarding TAAGATATAAAAAATGTGCACATTAAAGTATTAATT, the “gcPBM binding intensity (ln)” value amounted to 8.9 ± 0.45.

Regarding “TGTTATTCTGCATATACACACAAATAACAATTTAAA [CACACA_site6943]”, the “gcPBM binding intensity (ln)” value turned out to be 8.67 ± 0.38.

On to “TCTTATGATGGAATGTTAAATATTACATTTTGTTTA [TGCATGCA_negctrl_site503]”, for which the “gcPBM binding intensity (ln)” value amounted to 8.45 ± 0.52.

“TATATGTGGGTTTTTTTTATGTGTTTTTCTTTTTTT [CACACA_negctrl_site936]”: the “gcPBM binding intensity (ln)” value is 9.15 ± 0.35.

As to “CATTTCATTAATAAATGTACTTGTGAAGAGAAAAAG [XGTACX_site3115]”, the “gcPBM binding intensity (ln)” value is 8.39 ± 0.43.

Consider “AAAAGATAAAAAGAAGTGCATAATAGGAACAAATAT [GTGCAC_site9717]”, for which the “gcPBM binding intensity (ln)” value is 9.18 ± 0.51.

Regarding “ACAAAATTTACAAAATGTACAAAATATACAAAATGT [XGTACX_site3543]”, the “gcPBM binding intensity (ln)” value stood at 8.88 ± 0.39.

Consider “TACATAAATACATACACACACATATAACCAATGTAG [CACACA_site5243]”, for which the “gcPBM binding intensity (ln)” value amounted to 9.54 ± 0.21.

“CACATATATACACATACACACACACCCATACACCCA [CACACA_site8505]”: the “gcPBM binding intensity (ln)” value is 10.1 ± 0.25.

Regarding TTTACATTTTAGGAAGTGCATATAATAAATACTATC, the “gcPBM binding intensity (ln)” value came to 8.47 ± 0.38.

Consider “AGAGTACAAGTAAATACACACATATATATGAAAATA [CACACA_site1079]”, for which the “gcPBM binding intensity (ln)” value came out at 9.33 ± 0.44.

Take “ATTTATATTTAATATACACACATTATTTTTTTATAT [CACACA_site574]”: the “gcPBM binding intensity (ln)” value amounted to 8.91 ± 0.49.

“ATCACATTCCACGGTACACACTAAAAGAAAAATCAG [CACACA_site5907]”: the “gcPBM binding intensity (ln)” value is 8.99 ± 0.41.

As to “TATAATATGACAAGAAGTACATATATTTACATATAT [XGTACX_site1571]”, the “gcPBM binding intensity (ln)” value turned out to be 8.73 ± 0.44.

In the case of “ATATAATATTTTAGAGTGCACCGATAACAATAAATA [GTGCAC_site9754]”, the “gcPBM binding intensity (ln)” value was 8.8 ± 0.47.

As for “CAAGTATTATATTGCGCATGCAAAGAAGGACACAAA [TGCATGCA_site1024]”, the “gcPBM binding intensity (ln)” value was 9.12 ± 0.42.

Consider “TTATCTAGTACATACATACACACAACCATGTTATGA [CACACA_site3988]”, for which the “gcPBM binding intensity (ln)” value is 9.02 ± 0.38.

Regarding “ATATATATATATATATATATAATAAAAGATCATTTA [XGTACX_negctrl_site371]”, the “gcPBM binding intensity (ln)” value was 8.99 ± 0.31.

For “ATAATAAAAAGAAAAAGTACAAATGATTATGTTTGA [XGTACX_site3615]”, the “gcPBM binding intensity (ln)” value was 8.95 ± 0.57.

Turning to “TACTTTATTTTTTATACACACACAATATGTATATAT [CACACA_site9184]”, the “gcPBM binding intensity (ln)” value is 9.26 ± 0.45.

As for “GTATTTCTTTAATATACACACACCAAAACAAAAAAA [CACACA_site579]”, the “gcPBM binding intensity (ln)” value came out at 9.12 ± 0.32.

Turning to “AATAAATAAATAAGTACACACATATAAATATAAATA [CACACA_site6271]”, the “gcPBM binding intensity (ln)” value stood at 9.13 ± 0.37.
